# This is one part of the list.
# T1: UNK ZnF1-3 (human, UniProt Q9C0B0 31-174)
# T1 sequence: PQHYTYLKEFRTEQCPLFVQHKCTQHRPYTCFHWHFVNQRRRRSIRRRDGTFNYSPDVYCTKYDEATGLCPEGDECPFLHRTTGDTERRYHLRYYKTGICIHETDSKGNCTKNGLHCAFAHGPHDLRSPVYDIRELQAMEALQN
# B1: chr11:102151369:102151370:-_ENSMUSG00000059995_ENSMUST00000137387|mus_hu|FALSE|FALSE (ssRNA)
# RNA: GGGAGUUCUACAGUCCGACGAUCCGGCUAGAGGCCUGCUGAGAUCCUCCUCUCCCUCUGGCCUCCUCUCGGAGGGAGACUACGGAGGGCCAAGAAUAGAGAAGCCCAGGCCCCGGGAUUUAUUCUAACUCCUGCCAAAAUCUGCAACAGAGGAUUGAGCAUCA
# B2: chr3:25648697:25648698:-_ENSG00000077097_ENST00000264331|hu_hu|FALSE|FALSE (ssRNA)
# RNA: GGGAGUUCUACAGUCCGACGAUCUUUGUCAUGCAAAGAUUUUUCUGGAGUGGCUUUUGAUUUGCCUGGUGAAAAUGUAUAUUCAUCUUUAUCUAACCCAUCUGAAGGAACAAAUUCAUCUUCCCCAUCAUUUGUUAUGGGAGACAACAGAGGAUUGAGCAUCA
# B3: 5657272_5661565_1924_CDS_ENSG00000160633_ENST00000592224|human|control|control (ssRNA)
# RNA: GGGAGUUCUACAGUCCGACGAUCCAUGCGUUGUUCGCGUUCACUGCGUUCACGCACCCUAUGGGACUCUGAGUCUCUUGACUUCCGAGGCUCCUUGACCUUAUCAAAGGACACGACGGACCGCUUCUCUCUGCUGGCUGAUUUCAACAGAGGAUUGAGCAUCA
# B4: chr4:76721835:76721836:+_ENSG00000138768_ENST00000264904|hu_mus|hu_hu_hu_mus_True|8_48 (ssRNA)
# RNA: GGGAGUUCUACAGUCCGACGAUCGUUUGGCUGGGGUUUCUGAGACGCUCUGGAAUAUAACUCAUGUUUGCUAAUAAAUCCUAGUUUUCUAUGAAAUUUCUCUUUGCCAAUCCUCUUCUCUAUUAGUGUUUUAGCUUUCUCUUUCAACAGAGGAUUGAGCAUCA
# B5: chr12:110929859:110929860:-_ENSG00000111237_ENST00000549970|hu_mus|FALSE|FALSE (ssRNA)
# RNA: GGGAGUUCUACAGUCCGACGAUCCUGGCUUUACGACUUUUUAUACUCAAUUCGUUCUACUUUGACGUCAUCUCCAAUUAGUUGAUAGACGUAAGUGACCACAGUAGAAGCCUGGAUGUCCAUCAGCACAAACGAUGGAAUAAUCAACAGAGGAUUGAGCAUCA
# B6: chr5:33459820:33459821:+_ENSG00000113407_ENST00000502553|hu_hu|FALSE|FALSE (ssRNA)
# RNA: GGGAGUUCUACAGUCCGACGAUCCCAGAGUCGGCUGUUGAAGAUGUUUGGGGUGACUACCUCCUGGAAUCCUCUUUUCCUAUAUUCGCUCCUAAUGAAUUCAAUAAGUGCAUUAUAAAUGUAGGCUCCUUUUGGCAGAAAAAACAACAGAGGAUUGAGCAUCA
# B7: chr2:37458628:37458629:-_ENSMUSG00000026915_ENSMUST00000072186|mus_hu|motif|central (ssRNA)
# RNA: GGGAGUUCUACAGUCCGACGAUCCUUAUACUGAAGCCCAGGCCUGAUCUGAUUUAGCCUCAUUAGUGCAUUCAUAAGGUCGGUUGCUUUACUAUCCAGAAUUUUCCUUAAGUUUCGUUUCAUCUUCUUGUUGGGGUCUUUAUCCAACAGAGGAUUGAGCAUCA
# B8: chr6:36759976:36759977:-_ENSMUSG00000029838_ENSMUST00000101534|mus_hu|FALSE|FALSE (ssRNA)
# RNA: GGGAGUUCUACAGUCCGACGAUCUCAGUCUGCCUUUGUUGCAAGGGGCGAGGUUGCUACCGCUGAGUCCAGGUACCCGGCUCGCUGCAGCUCCUGCUUGGGCCGCUGCUGCUCUCCCCGCCUUCUGGACGGAUGACUCACUGGCAACAGAGGAUUGAGCAUCA
# B9: chr1:120444466:120444467:+_ENSMUSG00000064302_ENSMUST00000049404|mus_mus|FALSE|FALSE (ssRNA)
# RNA: GGGAGUUCUACAGUCCGACGAUCAAGGACGAAGAGCCAGUCUUGCAAGUCAUCCUUAUGAAUGAUUAUAAAAUCCACGAGGGUCUCCAAAAACAUACUGAAAACUCUCUUGCUGUGAGGGUCGGCAAACAUUCGGGUGAAAAUCAACAGAGGAUUGAGCAUCA
# B10: 78798051_78798171_2646_CDS_ENSMUSG00000033088_ENSMUST00000109689|mouse|control|control (ssRNA)
# RNA: GGGAGUUCUACAGUCCGACGAUCAGGUGGGGAAGAGGCGCGAGGUGCGUCCCGGUGCCCGAUGCACACAGUGCAGGGUGGCUGAGAGGACUCCAAAGAGGUCUGGGGAGCCCCUCGAGGUGCUGCGUGAAGAGGCGAUGAAGUCAACAGAGGAUUGAGCAUCA
# B11: chr7:72892646:72892647:-_ENSG00000009954_ENST00000339594|hu_mus|FALSE|FALSE (ssRNA)
# RNA: GGGAGUUCUACAGUCCGACGAUCUUUGUCACUGUGCUUCCCUGGCUUCUUGGCGGCUGGGCCUUUCUUAGGAAUGUGGAAGCUGUGUAGCUUGUUGUUGUUGGGGGACAUAAUUUUCAUCACCCCUUCCAAAUGUUCUUCCGGCAACAGAGGAUUGAGCAUCA
# B12: chr5:29673426:29673427:-_ENSMUSG00000010721_ENSMUST00000055195|mus_mus|motif|central (ssRNA)
# RNA: GGGAGUUCUACAGUCCGACGAUCAUUGCUGAUGAUUGAGAAGGGUAAAAGCAAAACCGCGCCAGCUGACACGGCGGGAGUGAAGGUGCUCAGAAACAACGAUAUCCUGUUGACUACAGCAUCCUCAUCUUCUUGUUCAUCGGACAACAGAGGAUUGAGCAUCA
# B13: chr7:141438946:141438947:+_ENSG00000106028_ENST00000265304|hu_mus|hu_hu_hu_mus_True|1_1 (ssRNA)
# RNA: GGGAGUUCUACAGUCCGACGAUCGACGAAAUACCUGUAACACAGGUCUUCGAAACAUGGCUUCUGUUUUUCUUACAACCUAAUCUUUAGGCUUUUCCUAAAGGAAAGAAAGAAAAGAGAAAAAUGAUAAAUCAAGAACUUCCGCAACAGAGGAUUGAGCAUCA
# B14: chr7:54823571:54823572:-_ENSG00000132432_ENST00000352861|hu_mus|hu_hu_hu_mus_False|8_58 (ssRNA)
# RNA: GGGAGUUCUACAGUCCGACGAUCUCCCAUGAUAGCAAAUCCUAUAGCUGUAGCCAUGGCAAUCUUCUGGAAUUCUUUUCUAUCAGGUUUGGUGCAUCUUUUAACCAGCCGAAUUGAGUCCUUUACAAACUGCCGACUGGGCUCCAACAGAGGAUUGAGCAUCA
# Target: T1, UNK ZnF1-3
# Test: nsRBNS (natural sequence RNA bind-n-seq); RBNS binding buffer (assumed for nsRBNS): 25 mM Tris pH 7.5, 150 mM KCl, 3 mM MgCl2, 0.01% Triton X-100, 500 ug/ml BSA, 20 U/ml SUPERase-In, 4 C; UNK is unkempt and MSI1 is Musashi-1; names of the RNAs are library labels; protein concentration not given here; high values mean tight binding
row,Binder,binding signal [enrichment R]
1,B1,0.954
2,B2,0.875
3,B3,0.462
4,B4,0.614
5,B5,0.911
6,B6,0.83
7,B7,0.504
8,B8,0.628
9,B9,1.6
10,B10,1.13
11,B11,0.518
12,B12,0.903
13,B13,0.706
14,B14,0.907

# Source: article PMC12136788
